# Results reported in a collection of fitness landscapes (doi:10.1038/s41467-024-54723-y).
# Over roughly 18,000 sequences, “TetR repression strength (sort-seq, GFP reporter)” has its median near 0.23; the highest 2% begin near 0.68. This is one part of the list.
# Molecular target: TetR (class B, Tn10) (UniProt P04483)
# Test: TetR repression strength (sort-seq, GFP reporter) (relative to tetO2 = 1); higher = stronger repression
# Conditions: E. coli
# Summary of the method: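 Escherichia coli SIG10-MAX cells carried a low-copy plasmid library in which eight operator positions were randomized between a constitutive promoter and sfGFP, and TetR was expressed constitutively. After 5 h of growth at 37 °C in LB with 50 µg/mL chloramphenicol, 10^6 cells were FACS-sorted into 13 fluorescence bins, and each bin was Illumina-sequenced. Repression strength was the top bin index plus one minus the read-weighted mean bin, divided by the value for the unaltered operator. Across three independent transformations, only library members with ≥30 reads in every replicate and a CV ≤0.5 were averaged.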
# Chain of UniProt P04483 (P04483 whole entry): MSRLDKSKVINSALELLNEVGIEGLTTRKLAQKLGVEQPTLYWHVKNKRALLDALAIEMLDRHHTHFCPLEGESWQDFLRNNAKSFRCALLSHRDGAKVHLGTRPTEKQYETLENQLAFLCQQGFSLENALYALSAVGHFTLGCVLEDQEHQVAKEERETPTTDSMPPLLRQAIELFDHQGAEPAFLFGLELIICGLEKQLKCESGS
row,Sequence,TetR repression strength
1,TCCCCGCGAGTTTAGGAGA,0.373
2,TCCCACAAAGTGCGTGAGA,0.0817
3,TCCCGACTAGTCGTAGAGA,0.442
4,TCCCGAGGAGTAGCAGAGA,0.227
5,TCCCCGCAAGTCCTAGAGA,0.215
6,TCCCGCGTAGTAGGGGAGA,0.425
7,TCCCTTGTAGTGGCGGAGA,0.271
8,TCCCCACTAGTGAGCGAGA,0.203
9,TCCCTTCGAGTGCGGGAGA,0.221
10,TCCCGGATAGTCCTAGAGA,0.0544
11,TCCCTCGCAGTGCGGGAGA,0.252
12,TCCCGAGAAGTCAGGGAGA,0.0148
13,TCCCCTATAGTGGCAGAGA,0.113
14,TCCCTAAGAGTTCTCGAGA,0.311
15,TCCCCCACAGTGTAAGAGA,0.183
16,TCCCGATCAGTACACGAGA,0.279
17,TCCCCATCAGTCCTCGAGA,0.327
18,TCCCCGGAAGTAGGCGAGA,0.186
19,TCCCTTGTAGTCTCGGAGA,0.364
20,TCCCATAAAGTGTAGGAGA,0.357
21,TCCCGTGGAGTAATGGAGA,0.288
22,TCCCAGTAAGTGGGTGAGA,0.232
23,TCCCTCGTAGTACGGGAGA,0.305
24,TCCCGGTGAGTGGAGGAGA,0.289
25,TCCCGAAGAGTCATTGAGA,0.207
26,TCCCAATTAGTTAACGAGA,0.213

row,Sequence,TetR repression strength
1,TCCCTGTTAGTCTGTGAGA,0.124
2,TCCCCGCTAGTTACCGAGA,0.448
3,TCCCAGGAAGTTCCCGAGA,0.0968
4,TCCCCGCCAGTAGCAGAGA,0.671
5,TCCCAAATAGTCGGGGAGA,0.12
6,TCCCGGCAAGTCGCGGAGA,0.264
7,TCCCTCCGAGTGTAAGAGA,0.281
8,TCCCAGCCAGTACGGGAGA,0.15
9,TCCCGATCAGTTATGGAGA,0.478
10,TCCCAGTAAGTCCGGGAGA,0.157
11,TCCCGAATAGTGCCTGAGA,0.525
12,TCCCGTTAAGTTCCTGAGA,0.721
13,TCCCAGTGAGTCATGGAGA,0.115
14,TCCCGGTCAGTTCAGGAGA,0.358
15,TCCCTAGTAGTTGGTGAGA,0.177
16,TCCCAGATAGTCGGCGAGA,0.166
17,TCCCCGTTAGTTGGTGAGA,0.116
18,TCCCTTGTAGTTAACGAGA,0.0908
19,TCCCTGAGAGTATGAGAGA,0.449
20,TCCCTTGTAGTTGCAGAGA,0.13
21,TCCCACATAGTGAACGAGA,0.412
22,TCCCCGTCAGTTCAAGAGA,0.294
23,TCCCAGAAAGTTGGAGAGA,0.225
24,TCCCGGGAAGTATCAGAGA,0.0407
25,TCCCACAGAGTGCAAGAGA,0.343
26,TCCCGGCGAGTATGGGAGA,0.182

row,Sequence,TetR repression strength
1,TCCCAAGTAGTAGAGGAGA,0.165
2,TCCCTGAAAGTTTCGGAGA,0.306
3,TCCCTGTTAGTCTTTGAGA,0.298
4,TCCCAGGTAGTCCGAGAGA,0.242
5,TCCCGAAGAGTCCAAGAGA,0.431
6,TCCCGTGCAGTAGGTGAGA,0.259
7,TCCCTGGGAGTGTGGGAGA,0.155
8,TCCCTCTAAGTTATGGAGA,0.294
9,TCCCTCGGAGTCCGCGAGA,0.516
10,TCCCTTGGAGTTGTAGAGA,0.381
11,TCCCAGCTAGTGGCGGAGA,0.316
12,TCCCGGATAGTACTAGAGA,0.291
13,TCCCATGGAGTCCTTGAGA,0.519
14,TCCCGAAGAGTCATGGAGA,0.205
15,TCCCCATCAGTTCTAGAGA,0.604
16,TCCCTAGGAGTTAACGAGA,0.358
17,TCCCTTTTAGTGAGAGAGA,0.425
18,TCCCACCCAGTAGACGAGA,0.227
19,TCCCTTTAAGTCTTAGAGA,0.0126
20,TCCCTACAAGTTTGTGAGA,0.0461
21,TCCCGGTAAGTAGACGAGA,0.144
22,TCCCGCATAGTGGCTGAGA,0.21
23,TCCCGCTGAGTCTTGGAGA,0.135
24,TCCCGCTCAGTGTGGGAGA,0.225
25,TCCCAATCAGTAAGCGAGA,0.347
26,TCCCCGATAGTGGAGGAGA,0.256

row,Sequence,TetR repression strength
1,TCCCTCAAAGTTCGGGAGA,0.0581
2,TCCCAAGTAGTATCAGAGA,0.44
3,TCCCCGGGAGTTGTAGAGA,0.162
4,TCCCGTGGAGTGTTGGAGA,0.325
5,TCCCGGGCAGTTCAGGAGA,0.513
6,TCCCACAAAGTTCTGGAGA,0.27
7,TCCCGCCGAGTGTCGGAGA,0.265
8,TCCCAGAGAGTACTAGAGA,0.336
9,TCCCAGATAGTTGGTGAGA,0.428
10,TCCCACAGAGTATAAGAGA,0.358
11,TCCCTTGCAGTACGTGAGA,0.536
12,TCCCGGAGAGTACCAGAGA,0.218
13,TCCCTACTAGTCTGTGAGA,0.327
14,TCCCAAGAAGTATCGGAGA,0.139
15,TCCCGTCTAGTGTTAGAGA,0.851
16,TCCCGACGAGTGCGGGAGA,0.157
17,TCCCACTTAGTTTCTGAGA,0.104
18,TCCCATAGAGTAATTGAGA,0.0803
19,TCCCAAACAGTTGGTGAGA,0.291
20,TCCCTGCGAGTAGCGGAGA,0.36
21,TCCCACCTAGTCTCTGAGA,0.412
22,TCCCGAAAAGTTAGAGAGA,0.131
23,TCCCGTGAAGTGAGCGAGA,0.888
24,TCCCCAGGAGTTTTTGAGA,0.297
25,TCCCGTCAAGTACCCGAGA,0.325
26,TCCCCAAAAGTGTCCGAGA,0.302

row,Sequence,TetR repression strength
1,TCCCTTATAGTTCATGAGA,0.4
2,TCCCGTCAAGTTGTGGAGA,0.0694
3,TCCCGAGGAGTGGCGGAGA,0.356
4,TCCCGCGAAGTGGGGGAGA,0.213
5,TCCCGGAGAGTAAGGGAGA,0.37
6,TCCCATTGAGTCCAGGAGA,0.158
7,TCCCTATTAGTAGGGGAGA,0.0567
8,TCCCATGTAGTGGTAGAGA,0.221
9,TCCCTTCTAGTGACCGAGA,0.316
10,TCCCGTTAAGTTTTCGAGA,0.284
11,TCCCAGCAAGTAGTGGAGA,0.222
12,TCCCATTCAGTTATTGAGA,0.55
13,TCCCGTGGAGTCCTTGAGA,0.304
14,TCCCTACTAGTTAACGAGA,0.438
15,TCCCTGTCAGTTTAGGAGA,0.31
16,TCCCTTAAAGTGTGGGAGA,0.212
17,TCCCGTCCAGTAAGGGAGA,0.415
18,TCCCCTATAGTGAGGGAGA,0.176
19,TCCCAGGCAGTGGGTGAGA,0.095
20,TCCCCTGGAGTAAGAGAGA,0.239
21,TCCCGTGAAGTGAGGGAGA,0.313
22,TCCCGTTGAGTCGCTGAGA,0.146
23,TCCCGTAGAGTTCGGGAGA,0.158
24,TCCCTGCTAGTACGGGAGA,0.163
25,TCCCTGGTAGTGTGAGAGA,0.181
26,TCCCATTCAGTACTAGAGA,0.419

row,Sequence,TetR repression strength
1,TCCCTTCTAGTCGGTGAGA,0.311
2,TCCCCCTCAGTTGATGAGA,0.262
3,TCCCAACGAGTCGTAGAGA,0.181
4,TCCCAGGCAGTCCAGGAGA,0.146
5,TCCCGCTTAGTCAGTGAGA,0.106
6,TCCCTGATAGTCGCTGAGA,0.234
7,TCCCAATCAGTGACAGAGA,0.723
8,TCCCAGTAAGTAGCTGAGA,0.19
9,TCCCGGGCAGTGACGGAGA,0.16
10,TCCCTACTAGTTACAGAGA,0.0592
11,TCCCTATGAGTATGTGAGA,0.199
12,TCCCGCGGAGTTCACGAGA,0.435
13,TCCCAGTCAGTAGGAGAGA,0.126
14,TCCCACCGAGTTAGAGAGA,0.334
15,TCCCGGCAAGTTGCGGAGA,0.272
16,TCCCGGCTAGTATTGGAGA,0.205
17,TCCCAGGCAGTATCGGAGA,0.241
18,TCCCGTAGAGTTTGGGAGA,0.31
19,TCCCTCAAAGTGATAGAGA,0.399
20,TCCCAGAGAGTCGTGGAGA,0.333
21,TCCCGAAAAGTCGGGGAGA,0.22
22,TCCCTGGGAGTAATGGAGA,0.27
23,TCCCGTGCAGTGTATGAGA,0.0671
24,TCCCGGTCAGTCCGTGAGA,0.223
25,TCCCGGAGAGTTGAGGAGA,0.193
26,TCCCACCGAGTGTGGGAGA,0.0148

row,Sequence,TetR repression strength
1,TCCCCTCGAGTTGGCGAGA,0.274
2,TCCCGACTAGTAAGTGAGA,0.173
3,TCCCAACGAGTGACTGAGA,0.196
4,TCCCGTATAGTGTTGGAGA,0.0518
5,TCCCATGGAGTAAGCGAGA,0.0864
6,TCCCGCAAAGTTGCCGAGA,0.0632
7,TCCCGCTCAGTGGATGAGA,0.273
8,TCCCGAGTAGTCTTGGAGA,0.0312
9,TCCCCAAGAGTCATTGAGA,0.24
10,TCCCTGCCAGTCTGTGAGA,0.21
11,TCCCGAGCAGTTGCGGAGA,0.167
12,TCCCATGGAGTGACTGAGA,0.231
13,TCCCGAGCAGTTAATGAGA,0.363
14,TCCCCAAGAGTATAAGAGA,0.301
15,TCCCCTTCAGTCTTTGAGA,0.483
16,TCCCCGCGAGTGGAAGAGA,0.222
17,TCCCGTGTAGTACCCGAGA,0.0328
18,TCCCGGTCAGTGGCCGAGA,0.523
19,TCCCCTTGAGTTCGCGAGA,0.207
20,TCCCATATAGTGGGGGAGA,0.184
21,TCCCGTGGAGTACGGGAGA,0.196
22,TCCCCAACAGTTATAGAGA,0.245
23,TCCCCCGGAGTTGGAGAGA,0.246
24,TCCCTTCGAGTTGGGGAGA,0.151
25,TCCCCGCCAGTTCGAGAGA,0.0306
26,TCCCGTACAGTGCCGGAGA,0.198

row,Sequence,TetR repression strength
1,TCCCGGTGAGTTCGTGAGA,0.511
2,TCCCGCGCAGTAATGGAGA,0.073
3,TCCCTTCAAGTGGTTGAGA,0.0288
4,TCCCAATCAGTTCTTGAGA,0.602
5,TCCCGGAGAGTCTGGGAGA,0.219
6,TCCCCAAGAGTGCGTGAGA,0.125
7,TCCCACAGAGTGGGTGAGA,0.129
8,TCCCGCTTAGTTCCCGAGA,0.355
9,TCCCGGGTAGTTAACGAGA,0.138
10,TCCCCCGGAGTAATGGAGA,0
11,TCCCTGACAGTAGTAGAGA,0.541
12,TCCCCGATAGTGGCCGAGA,0.0907
13,TCCCTAAAAGTCAGTGAGA,0.173
14,TCCCGTGCAGTGGGCGAGA,0.514
15,TCCCCTGCAGTGTGTGAGA,0.483
16,TCCCGGTTAGTGGCTGAGA,0.509
17,TCCCTTTGAGTGGCAGAGA,0.52
18,TCCCGTGCAGTGGATGAGA,0.264
19,TCCCCGGAAGTGTCTGAGA,0.295
20,TCCCAAAGAGTCGTGGAGA,0.118
21,TCCCATGGAGTAGCTGAGA,0.282
22,TCCCTAAGAGTGCTGGAGA,0.768
